Measurements reported in US12613249B2, “Use of Aβ34 to assess Alzheimer's disease progression” (THE ROYAL INSTITUTION FOR THE ADVANCEMENT OF LEARNING / …, priority 2019, dated 2026).

Legend:
Aβ34 [1] = target: T1, Aβ34 (Homo sapiens, UniProt P05067); assay: Surface plasmon resonance, synthetic Aβ peptides binding to captured mab34
T1 construct: purchased PSL, Germany; host or cells: chemical synthesis
Method: (§1) Using a BIACORE T200 system (GE Healthcare Bio-Sciences Aβ, Upsala, Sweden; v2.0 Control and v1.0 Evaluation software), SPR experiments were performed at 25° C. using filtered (0.2 μm) and degassed HBS-EP+ buffer (10 mM HEPES PH 7.4; 150 mM NaCl; 3 mM EDTA; 0.05% (v/v) Tween™-20). Using Biacore's Amine Coupling Kit, Mouse Antibody Capture Kit, and CM5 sensors, an anti-mouse Fc antibody (14 μg/mL in 10 mM sodium acetate pH 5.0) was immobilized to the flow cells (˜8000 RU each) as recommended by GE. To assess binding specificity, a variety of Aβ peptides (0-2 μM; 4-fold dilution series) were titrated over reference (anti-mouse Fc antibody only) and active (˜1000 RU mab34 captured to anti-mouse Fc antibody) surfaces in single-cycle kinetic mode (25 uL/min.×5 min. association+10 min. dissociation). Between each sample series, surfaces were regenerated at 50 uL/min. using two 30 sec pulses of Pierce Gentle Ag/Ab Elution Buffer pH 6.6 (Thermo Scientific #21027) as well as 10 mM glycine pH 1.7. To assess binding affinity, Aβ34 peptide titrations (0-1.6 µM; 3-fold dilution series) were performed in the similar manner using multi-cycle kinetic mode (25 uL/min.×10 min. association+20 min. dissociation). All of the double-referenced data presented are representative of duplicate injections acquired from at least three independent trials. […]

Aβ34 [2] = target: T2, Aβ34 (Homo sapiens, UniProt P05067, G704A); assay: as above; details: SPR, Aβ34 peptide variants
T2 construct: purchased PSL, Germany; host or cells: chemical synthesis
Method: as §1

Aβ34 [3] = target: T1, Aβ34; assay: MSD electrochemiluminescence immunoassay based on mab34; type: binding; details: MSD assay, n=3
Method: Using the ELISA Conversion Kit from Meso Scale Discovery (MSD, USA), an electrochemiluminescence-based assay was developed (neo-epitope specific Aβ34 and the sulfo-tagged 6E10 (binds to the N-terminus of human Aβ) or the sulfo-tagged 4G8 for murine samples (binds to the mid domain of Aβ)). […] After three washing steps with PBS-T for 1 min. at 22° C., 150 μL 2×MSD read buffer were added per well. All plates were read using a MSD QuickPlex SQ 120 Imager and data analyzed using MSD Workbench® software. […]
In the WORKBENCH® software, lower limit of detection LLOD was determined as the analyte concentration equivalent to the signal that is 2.5× standard deviation (SD) above the back-fit signal of the blank. Assay performance (inter-plate, intra-plate CV, LLOD, and upper limit of detection (ULOD)) were assessed using peptide calibrators in MSD diluent 35 (FIG. 2e). […]

B1: mab34: mouse monoclonal neo-epitope antibody against the C-terminus of Aβ34; heavy chain variable SEQ ID NO: 2, light chain variable SEQ ID NO: 4 (antibody, V domains shown)
VH: VKLVESGGGLVKPGGSLKLSCAASGFTFSTYAMSWVRQTPEKRLEWVASISSGGNTYYPDSVKGRFTISRDNARHILYLQMSSLRSEDTAMYYCARDSYYFGNSVYYAMDYWGQGTSVTVSS
VL: DVVMTQTPFILSVTIGQPASISCKSSQSLLDSDGKTYLNWLFQRPGQSPKRLIYQVSKVDAGVPDRFSGSGSGTDFTLKISRVEAEDLGIYYCWQGTHFPRTFGGGTKLEIKR
modifications: heavy chain variable region sequence of AB34 antibody; Aritificial sequence; light chain variable region sequence of AB34 antibody
- affinity of binding to the C-terminus of Aβ34 (Aβ34 [1]): nanomolar affinity
- recognition of G33A modified neo-epitope (Aβ34 [2]): not recognized
- cross-reactivity against Aβ35, Aβ38, Aβ40, or Aβ42 (Aβ34 [3]): without any significant cross-reactivity
